# The list shows a part of the results.
# B1: FliC (Pseudomonas aeruginosa), P72151 (protein)
# chain: MALTVNTNIASLNTQRNLNASSNDLNTSLQRLTTGYRINSAKDDAAGLQISNRLSNQISGLNVATRNANDGISLAQTAEGALQQSTNILQRIRDLALQSANGSNSDADRAALQKEVAAQQAELTRISDTTTFGGRKLLDGSFGTTSFQVGSNAYETIDISLQNASASAIGSYQVGSNGAGTVASVAGTATASGIASGTVNLVGGGQVKNIAIAAGDSAKAIAEKMDGAIPNLSARARTVFTADVSGVTGGSLNFDVTVGSNTVSLAGVTSTQDLADQLNSNSSKLGITASINDKGVLTITSATGENVKFGAQTGTATAGQVAVKVQGSDGKFEAAAKNVVAAGTAATTTIVTGYVQLNSPTAYSVSGTGTQASQVFGNASAAQKSSVASVDISTADGAQNAIAVVDNALAAIDAQRADLGAVQNRFKNTIDNLTNISENATNARSRIKDTDFAAETAALSKNQVLQQAGTAILAQANQLPQAVLSLLR
# Legend:
# Assay in all cases: glycan array binding signal (z-score within array); higher = stronger binding
# Conditions in all cases: glycan notation: IUPAC condensed, linker removed
# Fuc(a1-3)GlcNAc = biological target: Fuc(a1-3)GlcNAc
# Summary of the method: (§1)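 Arrays were curated from the Consortium for Functional Glycomics database, 3228 in total, and kept only where the protein sequence was available. Binding is expressed as a within-array Z-score. This score was averaged across arrays of the same protein sequence at different concentrations or buffers and across linkers, and negative values can be read as non-binding.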
# [1] = biological target: Fuc(a1-3)[Gal(b1-4)]Glc6S
# Summary of the method: as §1
# [2] = biological target: Fuc(a1-3)[Gal(b1-4)]GlcNAc
# Summary of the method: as §1
# [3] = biological target: Fuc(a1-3)[Gal(b1-4)]GlcNAc(b1-2)Man
# Summary of the method: as §1
# [4] = biological target: Fuc(a1-3)[Gal(b1-4)]GlcNAc(b1-2)Man(a1-3)[Fuc(a1-3)[Gal(b1-4)]GlcNAc(b1-2)Man(a1-6)]Man(b1-4)GlcNAc(b1-4)GlcNAc
# Summary of the method: as §1
# [5] = biological target: Fuc(a1-3)[Gal(b1-4)]GlcNAc(b1-2)Man(a1-3)[Fuc(a1-3)[Gal(b1-4)]GlcNAc(b1-2)Man(a1-6)]Man(b1-4)GlcNAc(b1-4)[Fuc(a1-6)]GlcNAc
# Summary of the method: as §1
# [6] = biological target: Fuc(a1-3)[Gal(b1-4)]GlcNAc(b1-3)Gal(b1-3)[Fuc(a1-4)]GlcNAc
# Summary of the method: as §1
# [7] = biological target: Fuc(a1-3)[Gal(b1-4)]GlcNAc(b1-3)GalNAc
# Summary of the method: as §1
# [8] = biological target: Fuc(a1-3)[Gal(b1-4)]GlcNAc(b1-4)Gal(b1-4)[Fuc(a1-3)]GlcNAc
# Summary of the method: as §1
# [9] = biological target: Fuc(a1-3)[Gal(b1-4)]GlcNAc(b1-4)Gal(b1-4)[Fuc(a1-3)]GlcNAc(b1-4)Gal(b1-4)[Fuc(a1-3)]GlcNAc
# Summary of the method: as §1
# [10] = biological target: Fuc(a1-3)[Gal(b1-4)]GlcNAc(b1-6)GalNAc
# Summary of the method: as §1
# [11] = biological target: Fuc(a1-3)[Gal(b1-4)]GlcNAc(b1-6)[Gal(b1-3)GlcNAc(b1-3)]Gal(b1-4)Glc
# Summary of the method: as §1
# [12] = biological target: Fuc(a1-3)[Gal(b1-4)]GlcNAc6S
# Summary of the method: as §1
# [13] = biological target: Fuc(a1-3)[Gal3S(b1-4)]Glc
# Summary of the method: as §1
# [14] = biological target: Fuc(a1-3)[Gal3S(b1-4)]GlcNAc
# Summary of the method: as §1
# [15] = biological target: Fuc(a1-3)[Gal3S(b1-4)]GlcNAc6S
# Summary of the method: as §1
# [16] = biological target: Fuc(a1-3)[GalNAc(b1-4)]GlcNAc
# Summary of the method: as §1
# [17] = biological target: Fuc(a1-3)[GalNAc(b1-4)]GlcNAc6S
# Summary of the method: as §1
# Fuc(a1-4)GlcNAc = biological target: Fuc(a1-4)GlcNAc
# Summary of the method: as §1
# Fuc(b1-3)GlcNAc = biological target: Fuc(b1-3)GlcNAc
# Summary of the method: as §1
# Gal(a1-2)Gal = biological target: Gal(a1-2)Gal
# Summary of the method: as §1
# Gal(a1-3)Gal = biological target: Gal(a1-3)Gal
# Summary of the method: as §1
# Gal(a1-3)Gal(b1-3)GlcNAc = biological target: Gal(a1-3)Gal(b1-3)GlcNAc
# Summary of the method: as §1
# [18] = biological target: Gal(a1-3)Gal(b1-3)GlcNAc(b1-2)Man
# Summary of the method: as §1
# [19] = biological target: Gal(a1-3)Gal(b1-3)GlcNAc(b1-2)Man(a1-3)[Gal(a1-3)Gal(b1-3)GlcNAc(b1-2)Man(a1-6)]Man(b1-4)GlcNAc(b1-4)GlcNAc
# Summary of the method: as §1
# [20] = biological target: Gal(a1-3)Gal(b1-3)GlcNAc(b1-3)GalNAc
# Summary of the method: as §1
# [21] = biological target: Gal(a1-3)Gal(b1-3)GlcNAc(b1-6)GalNAc
# Summary of the method: as §1
# [22] = biological target: Gal(a1-3)Gal(b1-3)[Fuc(a1-4)]GlcNAc(b1-2)Man(a1-3)[Gal(a1-3)Gal(b1-3)[Fuc(a1-4)]GlcNAc(b1-2)Man(a1-6)]Man(b1-4)GlcNAc(b1-4)GlcNAc
# Summary of the method: as §1
# Gal(a1-3)Gal(b1-4)Glc = biological target: Gal(a1-3)Gal(b1-4)Glc
# Summary of the method: as §1
# Gal(a1-3)Gal(b1-4)GlcNAc = biological target: Gal(a1-3)Gal(b1-4)GlcNAc
# Summary of the method: as §1
# [23] = biological target: Gal(a1-3)Gal(b1-4)GlcNAc(b1-2)Man
# Summary of the method: as §1
# [24] = biological target: Gal(a1-3)Gal(b1-4)GlcNAc(b1-2)Man(a1-3)[Gal(a1-3)Gal(b1-4)GlcNAc(b1-2)Man(a1-6)]Man(b1-4)GlcNAc(b1-4)GlcNAc
# Summary of the method: as §1
# [25] = biological target: Gal(a1-3)Gal(b1-4)GlcNAc(b1-3)GalNAc
# Summary of the method: as §1
# [26] = biological target: Gal(a1-3)Gal(b1-4)GlcNAc(b1-6)GalNAc
# Summary of the method: as §1
# [27] = biological target: Gal(a1-3)Gal(b1-4)[Fuc(a1-3)]GlcNAc
# Summary of the method: as §1
# [28] = biological target: Gal(a1-3)Gal(b1-4)[Fuc(a1-3)]GlcNAc(b1-2)Man(a1-3)[Gal(a1-3)Gal(b1-4)[Fuc(a1-3)]GlcNAc(b1-2)Man(a1-6)]Man(b1-4)GlcNAc(b1-4)GlcNAc
# Summary of the method: as §1
# Gal(a1-3)GalNAc = biological target: Gal(a1-3)GalNAc
# Summary of the method: as §1
binder,measurement,setting,value
B1,glycan array binding signal (z-score),Fuc(a1-3)GlcNAc,-0.077
same,glycan array binding signal (z-score),[1],-0.187
same,glycan array binding signal (z-score),[2],0.03
same,glycan array binding signal (z-score),[3],-0.146
same,glycan array binding signal (z-score),[4],-0.081
same,glycan array binding signal (z-score),[5],-0.224
same,glycan array binding signal (z-score),[6],-0.113
same,glycan array binding signal (z-score),[7],0.178
same,glycan array binding signal (z-score),[8],0.099
same,glycan array binding signal (z-score),[9],-0.169
same,glycan array binding signal (z-score),[10],-0.206
same,glycan array binding signal (z-score),[11],-0.153
same,glycan array binding signal (z-score),[12],-0.157
same,glycan array binding signal (z-score),[13],-0.196
same,glycan array binding signal (z-score),[14],-0.011
same,glycan array binding signal (z-score),[15],-0.147
same,glycan array binding signal (z-score),[16],0.089
same,glycan array binding signal (z-score),[17],-0.216
same,glycan array binding signal (z-score),Fuc(a1-4)GlcNAc,-0.226
same,glycan array binding signal (z-score),Fuc(b1-3)GlcNAc,-0.086
same,glycan array binding signal (z-score),Gal(a1-2)Gal,-0.009
same,glycan array binding signal (z-score),Gal(a1-3)Gal,-0.029
same,glycan array binding signal (z-score),Gal(a1-3)Gal(b1-3)GlcNAc,0.361
same,glycan array binding signal (z-score),[18],-0.177
same,glycan array binding signal (z-score),[19],-0.162
same,glycan array binding signal (z-score),[20],-0.143
same,glycan array binding signal (z-score),[21],0.888
same,glycan array binding signal (z-score),[22],-0.222
same,glycan array binding signal (z-score),Gal(a1-3)Gal(b1-4)Glc,-0.212
same,glycan array binding signal (z-score),Gal(a1-3)Gal(b1-4)GlcNAc,0.98
same,glycan array binding signal (z-score),[23],-0.035
same,glycan array binding signal (z-score),[24],-0.178
same,glycan array binding signal (z-score),[25],-0.202
same,glycan array binding signal (z-score),[26],0.774
same,glycan array binding signal (z-score),[27],0.903
same,glycan array binding signal (z-score),[28],-0.136
same,glycan array binding signal (z-score),Gal(a1-3)GalNAc,0.02

# — the supplement of paper PMC8728848
